EPA's CvTdb concentration-time database
The source gives many values for each of these; only a part stands here.

System: Rat
Assay: concentration in plasma after dosing
Conditions: iv, Female

concentration in plasma (0.25 h, dosed: Tamoxifen citrate, 0.3 mg/kg, Sprague-Dawley)	concentration in plasma (0.5 h, dosed: Tamoxifen citrate, 0.3 mg/kg, Sprague-Dawley)	concentration in plasma (1 h, dosed: Tamoxifen citrate, 0.3 mg/kg, Sprague-Dawley)	concentration in plasma (2 h, dosed: Tamoxifen citrate, 0.3 mg/kg, Sprague-Dawley)	concentration in plasma (4 h, dosed: Tamoxifen citrate, 0.3 mg/kg, Sprague-Dawley)	Structure (SMILES)	concentration in plasma (1 h, dosed: dichloroacetic acid, 60 mg/kg, Harlan Sprague-Dawley)
–	–	–	–	–	O=C(O)C(Cl)Cl [dichloroacetic acid]	10900 ng/mL
13.7 ng/mL	20.1 ng/mL	8.88 ng/mL	6.89 ng/mL	4.04 ng/mL	CC/C(=C(\c1ccccc1)c1ccc(OCCN(C)C)cc1)c1ccccc1 [Tamoxifen, free base]	–
